According to the supplement of paper PMC3334620:
Over roughly 33,000 sequences, “E-score (-0.5 to 0.5)” has its median near -0.032; the highest 2% begin near 0.36. Some of the results follow.

These sequences were tested against T1, Sko1 (UniProt Q02100) (assay: PBM E-score (8-mer binding enrichment) (E-score (-0.5 to 0.5)); higher = stronger / more preferred TF binding; most listed sequences are background and not binding sites). Settings: protein concentration: 200 nM; construct: GST-full length.
T1 sequence: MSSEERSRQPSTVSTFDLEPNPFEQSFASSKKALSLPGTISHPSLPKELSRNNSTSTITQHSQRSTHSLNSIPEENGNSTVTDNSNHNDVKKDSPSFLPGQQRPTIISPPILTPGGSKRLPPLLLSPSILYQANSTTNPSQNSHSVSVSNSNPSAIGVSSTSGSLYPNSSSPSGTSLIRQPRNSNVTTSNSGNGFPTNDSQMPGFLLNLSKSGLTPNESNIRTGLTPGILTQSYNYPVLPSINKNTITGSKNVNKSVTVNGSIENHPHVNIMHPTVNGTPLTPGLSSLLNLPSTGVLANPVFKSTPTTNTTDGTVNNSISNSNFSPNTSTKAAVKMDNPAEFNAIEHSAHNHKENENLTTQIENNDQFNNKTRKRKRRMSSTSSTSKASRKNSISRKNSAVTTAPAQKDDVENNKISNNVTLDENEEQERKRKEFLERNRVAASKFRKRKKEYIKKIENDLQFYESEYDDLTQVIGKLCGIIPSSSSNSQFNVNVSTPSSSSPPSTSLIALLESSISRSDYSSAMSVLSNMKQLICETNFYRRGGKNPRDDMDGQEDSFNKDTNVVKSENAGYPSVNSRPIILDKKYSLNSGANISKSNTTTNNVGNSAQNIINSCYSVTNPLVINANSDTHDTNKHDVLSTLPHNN
Procedure, shortened: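 GST-tagged yeast TFs (full-length or DNA-binding domain) were made by PURExpress in vitro transcription/translation and applied at about 100-200 nM to universal all-10-mer Agilent arrays. The arrays were made double-stranded by primer extension, on fresh or once-stripped slides. Bound protein was detected with fluorescent anti-GST, and scans were normalised with masliner. Each ungapped eight-base word, pooled with its reverse complement, received an E-score (modified Wilcoxon-Mann-Whitney statistic) from the Universal PBM Analysis Suite.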

| Sequence | PBM E-score |
| --- | --- |
| AGGTATCG | 0.0527 |
| CTGGGGTC | -0.155 |
| GACATCTC | -0.104 |
| AAGAGGTA | -0.179 |
| TATGCGAA | 0.126 |
| CGTTGTAG | 0.0645 |
| AACGCTTA | 0.0093 |
| CTTAGGCA | -0.149 |
| ACCGTCAC | 0.0631 |
| CTTGGCTA | -0.101 |
| CCACCCTC | -0.104 |
| CCCAGGAA | -0.18 |
| ACGTTGCA | 0.307 |
| GAAGACGA | 0.0858 |
| ATTCGAAT | 0.0969 |
| ATGCCGAA | -0.121 |
| ACTATTTG | 0.0702 |
| AGTGGACG | 0.261 |
| GACCCCGC | -0.206 |
| AACCTGTA | -0.057 |
| GTAACTAC | 0.26 |
| AAATCTCT | 0.0923 |
| CGGAGGCA | -0.163 |
| CGACAGAC | -0.083 |

| Sequence | PBM E-score |
| --- | --- |
| CGAAGCCA | -0.11 |
| AGGTACAA | 0.00931 |
| ATTCCGAC | -0.0645 |
| GCGCCTTA | 0.0579 |
| AACCACAA | -0.0239 |
| AGCAATTA | 0.0652 |
| AATGACTG | 0.0525 |
| AACTGAGG | -0.0359 |
| GGTGAACA | -0.153 |
| ACGTTCCA | 0.16 |
| ACGCAATC | 0.411 |
| CCTGGACG | -0.154 |
| AACTAGGT | -0.0107 |
| CTATCAGC | 0.0193 |
| CCATTGAA | 0.016 |
| GGATCGTA | -0.0269 |
| GTCGGCTA | -0.00791 |
| GAGGGATA | -0.209 |
| CTAACCCC | -0.289 |
| GGATCTAA | -0.0907 |
| ATTACGTG | 0.487 |
| CGCTTACG | 0.318 |
| ACACTCCA | 0.0869 |
| AGGCGTGG | -0.273 |

| Sequence | PBM E-score |
| --- | --- |
| AACCAGTC | -0.111 |
| CCAAGCAG | -0.195 |
| AACTAGCG | -0.0716 |
| AATCTGTG | -0.0631 |
| CTCATGAC | 0.285 |
| AGACGGCG | -0.091 |
| AGTCTTTA | 0.175 |
| AGTATCAT | 0.139 |
| TACGGGCA | 0.0236 |
| ACGCACAT | 0.387 |
| ATAGATAG | 0.107 |
| CTCGCGAC | -0.00079 |
| CCAAGACA | 0.00227 |
| CTTGACTA | -0.0603 |
| AGCTGGAA | -0.228 |
| ATTCCTCA | 0.0613 |
| ACACGTCA | 0.489 |
| CCGAAACA | 0.00154 |
| ACACATTA | 0.123 |
| ACGCATAA | 0.298 |
| AGCCCTGG | -0.344 |
| GGCCCTCA | -0.341 |
| GCCACTAC | -0.0738 |
| GGCACGTA | 0.395 |

| Sequence | PBM E-score |
| --- | --- |
| AGTCGGAG | -0.14 |
| GCAACGGC | -0.213 |
| CTTTCGAC | -0.106 |
| ATACGGGG | -0.128 |
| ATCAGAAC | 0.103 |
| AAACTGGC | -0.0811 |
| AGCTGGCA | -0.145 |
| AGGGGGTA | -0.328 |
| CCTTGCGA | -0.1 |
| ATTATACC | 0.187 |
| ATATTGCA | 0.0677 |
| TAGCCAAA | 0.0481 |
| TGACCCAA | 0.0778 |
| CTCTAGTC | -0.256 |
| AGTGCATG | 0.0503 |
| GCCTTCAA | -0.252 |
| ATATCGCC | -0.0736 |
| CAACCGTC | -0.23 |
| ACTTTCAC | 0.123 |
| CCTAGCGC | -0.14 |
| AACACACT | 0.125 |
| ACAAAGCT | -0.0764 |
